# Laboratory results reported in the antibiotic and cytotoxicity screens of Wong et al. (2023).
# The list shows a part of the results.
# Tested on: HSkMC (human skeletal muscle cells)
# Assay: cytotoxicity call (relative viability < 0.9)
# Settings: 10 µM
row,Compound,cytotoxicity call
1,C[C@@H]1CN([C@@H](C)CO)C(=O)c2cc(NS(C)(=O)=O)ccc2O[C@@H]1CN(C)C(=O)NC1CCCCC1,inactive
2,C[C@@H]1CN([C@@H](C)CO)C(=O)c2cc(NC(=O)Nc3cccc4ccccc34)ccc2O[C@@H](C)CCCCO[C@@H]1CN(C)C,inactive
3,C[C@H](CO)N1C[C@H](C)[C@H](CN(C)Cc2ccc(F)cc2)OCc2ccccc2-c2c(n(C)c3ccccc23)C1=O,inactive
4,CCOC(=O)N[C@H]1CCS(=O)(=O)C1,inactive
5,C[C@@H]1CN([C@H](C)CO)C(=O)Cc2cc(NS(=O)(=O)c3cn(C)cn3)ccc2O[C@@H]1CN(C)C(=O)Nc1ccc(F)cc1,inactive
6,C[C@H]1CN([C@@H](C)CO)S(=O)(=O)c2ccc(C#CCN(C)C)cc2O[C@H]1CN(C)Cc1ccncc1,inactive
7,CC[C@H](C)[C@@H]([C@@H](CC(=O)N1CCC[C@H]1[C@H](OC)[C@@H](C)C(=O)N[C@@H](Cc1ccccc1)c1nccs1)OC)N(C)C(=O)[C@@H](NC(=O)[C@H](C(C)C)N(C)C)C(C)C,active
8,CC(C)N[C@H]1CCS(=O)(=O)C1,inactive
9,CC(C)NC(=O)Nc1cccc2c1O[C@@H](CN(C)C(=O)Nc1ccc3c(c1)OCO3)[C@@H](C)CN([C@H](C)CO)C2=O,inactive
10,COc1ccc(S(=O)(=O)N(C)C[C@H]2Oc3ccc(NS(=O)(=O)c4c(C)noc4C)cc3CC(=O)N([C@@H](C)CO)C[C@@H]2C)cc1,inactive
11,C[C@@H]1CCCCO[C@H](CN(C)C(=O)Nc2ccccc2)[C@@H](C)CN([C@@H](C)CO)C(=O)c2cc(NC(=O)C3CCCCC3)ccc2O1,inactive
12,CCN(CC)S(=O)(=O)c1nnc[nH]1,inactive
13,C[C@@H]1CCCCO[C@@H](CN(C)C(=O)Nc2ccc(F)cc2)[C@H](C)CN([C@@H](C)CO)C(=O)c2cc(NS(=O)(=O)c3ccc(Cl)cc3)ccc2O1,inactive
14,C[C@@H]1CCCCO[C@@H](CN(C)C(=O)Nc2ccc(F)cc2)[C@@H](C)CN([C@H](C)CO)C(=O)c2cc(NC(=O)CCCCCC(=O)Nc3ccccc3N)ccc2O1,inactive
15,CN(C)CC(=O)N[C@H]1CC[C@@H](CCn2cc(CN(C)C)nn2)O[C@@H]1CO,inactive
16,C[C@@H]1CN([C@@H](C)CO)C(=O)c2cc(NS(=O)(=O)c3cn(C)cn3)ccc2O[C@@H]1CN(C)CC1CC1,inactive
17,C[C@H]1CN([C@@H](C)CO)C(=O)c2cccc(NC(=O)c3nc4ccccc4s3)c2O[C@H]1CN(C)C(=O)Nc1ccc(C(F)(F)F)cc1,inactive
18,CNC(=O)C[C@@H]1CC[C@@H]2[C@H](COC[C@@H](O)CN2C(=O)Nc2ccc3c(c2)OCO3)O1,inactive
19,C[C@H](CO)N1C[C@H](C)[C@@H](CN(C)Cc2ccc3c(c2)OCO3)Oc2ccc(NC(=O)CCCN(C)C)cc2CC1=O,inactive
20,C[C@H](CO)N1C[C@H](C)[C@@H](CN(C)CC2CCCCC2)Oc2c(NC(=O)Nc3ccc(F)cc3)cccc2C1=O,inactive
21,CN(C)Cc1cn(CC[C@H]2CC[C@H](NS(=O)(=O)c3ccccc3)[C@H](CO)O2)nn1,inactive
22,Cc1noc(C)c1S(=O)(=O)Nc1cccc2c1O[C@H](CN(C)C(=O)NC(C)C)[C@H](C)CN([C@H](C)CO)C2=O,inactive
23,C[C@@H]1CN([C@H](C)CO)C(=O)c2cc(NC(=O)NC3CCCCC3)ccc2O[C@@H]1CN(C)C(=O)Nc1ccc(C(F)(F)F)cc1,inactive
24,C[C@H](CO)N1C[C@H](C)[C@@H](CN(C)Cc2ccc(Cl)c(Cl)c2)Oc2ccc(NC(=O)Nc3cccc4ccccc34)cc2C1=O,inactive
25,Cc1ccc(S(=O)(=O)N(C)C[C@H]2OCCCC[C@H](C)Oc3ccc(NS(C)(=O)=O)cc3C(=O)N([C@H](C)CO)C[C@@H]2C)cc1,inactive
26,C[C@@H]1CCCCO[C@H](CN(C)CC2CCCCC2)[C@@H](C)CN([C@H](C)CO)C(=O)c2cc(NC(=O)CCCCCC(=O)Nc3ccccc3N)ccc2O1,inactive
27,C[C@H]1CN([C@@H](C)CO)C(=O)c2cccc(NS(=O)(=O)c3ccc(F)cc3)c2O[C@@H]1CN(C)S(=O)(=O)c1cn(C)cn1,inactive
28,C[C@H]1CN([C@@H](C)CO)C(=O)Cc2cc(NC(=O)Cn3cnnn3)ccc2O[C@@H]1CN(C)CC1CCCCC1,inactive
